1 molecule from patent US12221481B2, “CD19 binding molecules and uses thereof” (Novartis AG, priority 2019, dated 2025) can be followed below.

Assay [1] deals with CD8+CD28+ and CD8+CD28- T cells. The assay is described as follows: Proliferation, cytokine production and surface phenotype of sorted CD28+ / CD28- CD8 T cells co-cultured with Nalm6 (Example 26). In kind it is cell-based, human. The source says: Nalm-6 target cells stably expressing firefly luciferase were irradiated at 50Gy on the day of the assay set up. Peripheral blood mononuclear cells (PBMCs) previously isolated from buffy coat donors (Bern Hospital) and cryopreserved were thawed and total T cells were isolated by negative selection using the human Pan T cell Isolation Kit (Miltenyi Biotec, Cat #130-096-535) following the manufacturer's protocol. The positive fraction (called PBMCs-T cells depleted) was irradiated at 50Gy in order to be used as feeder for the co-culture. From the negative fraction, enriched in total T cells, CD8^+ T cells were isolated by an additional step of negative selection using EasySep™ Human CD8^+ T Cell Enrichment Kit (Stem Cell, Cat #19053). Untouched CD8^+ cells were then stained with an anti-CD28 antibody (Biolegend, Cat #302922) and sorted with a FACSAria (BD) according to CD28 expression: CD8^+CD28^+ and CD8^+CD28^−. The purity of sorted cells was >95%.
After sorting, T cells were labelled with 2.5 μM of Carboxyfluorescein succinimidyl ester (CFSE, Thermo Scientific, Cat #C34554) following the manufacturer's protocol.
Each T cell subset (either CD8^+CD28^+ or CD8^+CD28^−) of CFSE-labelled T cells was co-cultured with Nalm6 target cells, seeding 50,000 T cells and 50,000 target cells to achieve an effector: target (E:T) ratio of 1:1. Cells were diluted and co-plated to obtain additional final E:T ratio of 1:3 or 1:6.
In the co-culture conditions where the presence of irradiated PBMCs-T cells depleted was required, 10,000 PBMCs were plated to obtain a 5:1 ratio, effector T cells: PBMCs.
The T cells-tumor cells co-culture was plated in a Costar 96 well plate (Corning, Cat #3585) in T Cell Media [RPMI-1640 (ThermoFisher Scientific, Cat #21875-034); 10% FBS HyClone (GE healthcare, Cat #SH30070.03); 1% Non Essential Amino Acids (Thermo Fisher Scientific, Cat #11140-050); 1% Pen/Strep (Thermo Fisher Scientific, Cat #15140122); 1% HEPES (Lonza, Cat #17737E); Sodium Pyruvate (Thermo Fisher Scientific, Cat #11360-070); 50 μM Beta-mercaptoethanol (Thermo Fisher Scientific, Cat #31350)].
CD3hi TSP1 and CD3hi BSP1, diluted in T cell Media, were added to the cells at different concentrations (1 nM, 0.1 nM and 0.01 nM) and incubated in a 5% CO2, 37° C. incubator for 72 hrs. In order to be able to detect intracellular cytokines production, plates were incubated for the last 1.5 hrs of the co-culture with PMA (50 ng/ml; SIGMA, Cat #P1585)). Ionomycin (500 μg/ml; Calbiochem, Cat #407950); brefeldin (10 μg/ml; Cell Signaling, Cat #9972) was also added for the last 1.5 hours of the incubation.
At the end of the 72 hrs, cells were harvested and then stained with a viability die, Zombie Aqua (Biolegend, Cat #423102) by incubating at room temperature, for 10 mins. Cells were then washed twice using FACS Buffer and stained with antibodies against surface markers: anti-CD2 (Biolegend, Cat #300214), anti-CD28 (Biolegend, Cat #302922), anti-CCR7 (Biolegend, Cat #353226), and anti-CD45RO (Biolegend, Cat #304216). Intracellular IFN-g and granzyme B (GzB) were detected by treating T cells with BD cytofix cytoperm kit (BD, Cat #555028) according to the manufacturer's instructions, and staining them with anti-IFNg (Biolegend, Cat #502509) and anti-granzyme B antibodies (BD, Cat #560213). Samples were washed with FACS buffer and acquired on a BD LSR Fortessa (BD). Analysis was performed with FLOWJO software (version 10.6.0; Tree Star Inc.).

Assay [2] has as its system CD19+ Nalm6-luc target cells. The assay is described as follows: RTCC against Nalm6 with sorted CD8 T cell subsets (Example 27). In kind it is cell-based, human. An excerpt:
Peripheral blood mononuclear cells (PBMCs) previously isolated from buffy coat donors (Bern Hospital) and cryopreserved were thawed and total T cells were isolated by negative selection using the Pan T cell Isolation Kit, human (Miltenyi Biotec, Cat #130-096-535) following the manufacturer's protocol. The positive fraction (called PBMCs-T cell depleted) was irradiated at 50Gy in order to be used as feeder in the co-culture.
From the negative fraction, enriched in total T cells, CD8^+ T cells were then isolated by an additional step of negative selection using EasySep™ Human CD8+ T Cell Enrichment Kit (Stem Cell, Cat #19053). Untouched CD8^+ cells were then stained with an anti-CD28 antibody (Biolegend, Cat #302922) and sorted with a FACSAria (BD) according to the CD28 expression: CD8^+CD28^+ and CD8^+CD28^−. The purity of th sorted cells was >95%. […]
Plates were incubated in a 37° C. incubator with 5% CO2 for 72 hrs. Following the co-incubation, One-Glo (Promega, catalog #E6110) was added to all wells and the luminescence signal was subsequently measured on an ELISA Reader 4.18 1 (Biotek, Synergy H1). […] The percent RTCC of target cells was calculated using the following formula: [100−(sample/maximal signal)*100%].

B1: CD3hi TSP1: Trispecific binding molecule: NEG258-based CD19 Fab, CD3hi anti-CD3 scFv, CD58 IgV domain, knob-into-hole silenced hIgG1 Fc (antibody)
heavy: QVQLVQSGAEVKKPGASVKVSCKASGYTFTTYWIQWVRQAPGQRLEWMGAVYPGDADTRYTQKFQGRVTLTADRSASTAYMELSSLRSEDTAVYYCGRDAGLEYYALDYWGQGTLVTVSSASTKGPSVFPLAPSSKSTSGGTAALGCLVKDYFPEPVTVSWNSGALTSGVHTFPAVLQSSGLYSLSSVVTVPSSSLGTQTYICNVNHKPSNTKVDKRVEPKSCGGGGSGGGGSEVQLVESGGGLVQPGGSLKLSCAASGFTFNTYAMNWVRQASGKGLEWVGRIRSKYNNYATYYADSVKDRFTISRDDSKSTLYLQMNSLKTEDTAVYYCVRHGNFGNSYVSWFAYWGQGTLVTVSSGGGGSGGGGSGGGGSGGGGSQAVVTQEPSLTVSPGGTVTLTCRSSTGAVTTSNYANWVQQKPGQAPRGLIGGTNKRAPWTPARFSGSLLGDKAALTLSGAQPEDEAEYFCALWYSNLWVFGGGTKLTVLGGGGSDKTHTCPPCPAPELLGGPSVFLFPPKPKDTLMISRTPEVTCVVVAVSHEDPEVKFNWYVDGVEVHNAKTKPREEQYASTYRVVSVLTVLHQDWLNGKEYKCKVSNKALAAPIEKTISKAKGQPREPQVCTLPPSREEMTKNQVSLSCAVKGFYPSDIAVEWESNGQPENNYKTTPPVLDSDGSFFLVSKLTVDKSRWQQGNVFSCSVMHEALHNHYTQKSLSLSPGK
light: EIVMTQSPATLSVSPGERATLSCRASQDVGTAVAWYQQKPGQAPRLLIYWASTRHTGIPARFSGSGSGTEFTLTISSLQSEDFAVYFCQQYANFPLYTFGQGTKLEIKRTVAAPSVFIFPPSDEQLKSGTASVVCLLNNFYPREAKVQWKVDNALQSGNSQESVTEQDSKDSTYSLSSTLTLSKADYEKHKVYACEVTHQGLSSPVTKSFNRGEC
chain: SQQIYGVVYGNVTFHVPSNVPLKEVLWKKQKDKVAELENSEFRAFSSFKNRVYLDTVSGSLTIYNLTSSDEDEYEMESPNITDTMKFFLYVLESGGGGSDKTHTCPPCPAPELLGGPSVFLFPPKPKDTLMISRTPEVTCVVVAVSHEDPEVKFNWYVDGVEVHNAKTKPREEQYASTYRVVSVLTVLHQDWLNGKEYKCKVSNKALAAPIEKTISKAKGQPREPQVYTLPPCREEMTKNQVSLWCLVKGFYPSDIAVEWESNGQPENNYKTTPPVLDSDGSFFLYSKLTVDKSRWQQGNVFSCSVMHEALHNHYTQKSLSLSPGK
Consider B1, for which the “proportion (%) of CD28- T cells IFNg+GzB+” value in assay [1] is “more pronounced”. In addition, the “GzB+ T cells and IFNg+ T cells, as MFI” value in assay [1] (0.1 nM, presence and absence of irradiated PBMCs, CD28- and CD28+ subsets) is listed as “clear increase”. The “median fluorescence intensity (MFI) for IFNg and GzB” value in assay [1] (1 nM, in particular CD28- T cells with irradiated PBMCs) is reported as “clear shift in the median fluorescence intensity (MFI) for both cytokines”. Further, in assay [1] (72 hrs treatment), the “T cell surface phenotype (CD45RO, CCR7) of CD28- cells” value is “re-aquired a central memory/effector memory phenotype”. Moreover, in assay [1] (both concentrations tested, different E:T ratios), the “proliferation, potency compared between constructs” value was “more potent in inducing proliferation of both T cells subsets compared to CD3hi BSP1”. The “proliferation of CD28+ and CD28- T cells (CFSE dilution)” value in assay [1] (co-culture with Nalm6, 72 hrs, with or without irradiated PBMCs) is “induced proliferation”. Further, in assay [2] (0.1 nM or 1 nM, in presence of irradiated feeder, compared to the other treatments), the “RTCC with CD8+CD28- T cells” value is recorded as “increase”. In assay [2] (sorted CD8 T cells, 72 hrs, compared to control antibody CD3hi TSP1C), the RTCC activity result is on record as “mediated RTCC activity”.
